Reference: patent publication US20250214977A1, “STAT6 INHIBITORS AND USES THEREOF” (Kymera Therapeutics, Inc., priority 2024, published 2025)
“And” between values parts separate entries of the source, which are not always exact repeats. Equal values may be shown once.

Biological target: T1, biotinylated truncated STAT6 (123-632)-avi (Homo sapiens, UniProt P42226)
T1 sequence (P42226 123-632 limits assumed): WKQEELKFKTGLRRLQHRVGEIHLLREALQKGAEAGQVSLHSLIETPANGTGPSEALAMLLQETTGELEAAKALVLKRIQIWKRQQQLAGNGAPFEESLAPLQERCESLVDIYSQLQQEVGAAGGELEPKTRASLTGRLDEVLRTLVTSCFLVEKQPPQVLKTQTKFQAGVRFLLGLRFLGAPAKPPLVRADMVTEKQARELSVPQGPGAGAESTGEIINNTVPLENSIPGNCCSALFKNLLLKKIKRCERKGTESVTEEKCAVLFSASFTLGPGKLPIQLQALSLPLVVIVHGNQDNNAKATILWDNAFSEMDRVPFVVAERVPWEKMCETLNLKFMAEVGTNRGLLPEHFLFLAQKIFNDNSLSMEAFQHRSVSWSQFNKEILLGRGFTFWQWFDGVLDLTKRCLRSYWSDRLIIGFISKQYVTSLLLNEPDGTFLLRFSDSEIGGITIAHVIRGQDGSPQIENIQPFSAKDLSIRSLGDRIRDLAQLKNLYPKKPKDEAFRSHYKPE
Test: Homogenous Time-Resolved Fluorescence (HTRF) binding assay
Settings: 0.15 nM biotinylated truncated STAT6 (123-632)-avi, 20 nM fluorescein-labeled probe

Row | Compound | IC50 (30 minutes room temperature) | IC50 (30 minutes at room temperature)
1 | COc1cc2c(N3CCN(C(=O)c4cc5c(-c6ccccc6OC)cc(C6=CCCN(C(=O)CCn7ccnn7)C6)c(F)c5[nH]4)CC3)c(C#N)cnc2cc1O [Example I-1432] | 0.1 to 1 µM | –
2 | CN(C)C(=O)c1cc2cc(C3=CCCN(C(=O)C4c5ccccc5CCN4C)C3)ccc2o1 (centres unmarked) [Example I-208] | – | 10 to 100 µM
3 | CCc1cc(CC)c(-c2cc(C3=CCCN(C(=O)CCn4cccn4)C3)c(F)c3[nH]c(C(=O)N4CCN(c5nc(C)c(F)cc5OC)CC4)cc23)cn1 [Example I-741] | – | 0.1 to 1 µM
4 | COc1ccccc1-c1cc(C2=CCCN(C(=O)CCn3ccnn3)C2)c(F)c2[nH]c(C(=O)N3CCN(CCN4CCCC4=O)CC3)cc12 [Example I-1355] | < 0.1 µM | –
5 | CCN[C@H](Cn1ccnn1)C(=O)N1CCC=C(c2ccc3oc(C(=O)N(C)C)cc3c2)C1 [Example I-169] | – | 10 to 100 µM
6 | COc1ccccc1-c1cc(C2=CCCN(C(=O)CCn3ccnn3)C2)c(F)c2[nH]c(C(=O)N3CCN(c4ncnc5c4oc4ccccc45)CC3)cc12 [Example I-1459] | < 0.1 µM | –
7 | COc1ccc(CN(C)C(=O)c2cc3c(-c4ccccc4OC)cc(C4=CCCN(C(=O)CCn5ccnn5)C4)c(F)c3[nH]2)c(OC)c1 [Example I-1407] | < 0.1 µM | –
8 | COc1ccccc1-c1cc(C2=CCCN(C(=O)CCn3ccnn3)C2)c(F)c2[nH]c(C(=O)N3CCN(c4ccc5ccccc5n4)CC3)cc12 [Example I-1532] | 0.1 to 1 µM | –
9 | COc1cc(F)cnc1N1CCN(C(=O)c2cc3c(-c4ccc(-c5cccnc5)cc4)cc(C4=CCCN(C(=O)CCn5ccnn5)C4)c(F)c3[nH]2)CC1 [Example I-1152] | – | < 0.1 µM
10 | COc1ncccc1-c1cc(C2=CCCN(C(=O)CCn3ccnn3)C2)c(F)c2[nH]c(C(=O)N3CCN(c4ncccc4OC4CC4)CC3)cc12 [Example I-595] | – | < 0.1 µM
11 | CCc1ccncc1-c1cc(C2=CCCN(C(=O)CCn3cccn3)C2)c(F)c2[nH]c(C(=O)N3CCN(c4ncc(F)cc4OC)CC3)cc12 [Example I-686] | – | < 0.1 µM
12 | CN(C)C(=O)c1cc2cc(C3=CCCN(C(=O)Cc4ccccn4)C3)ccc2o1 [Example I-263] | – | 10 to 100 µM
13 | CN(C)C(=O)c1cc2cc(C3=CCCN(C(=O)Cc4ccncc4)C3)ccc2o1 [Example I-279] | – | 10 to 100 µM
14 | COc1ccccc1-c1cc(C2=CCCN(C(=O)CCn3ccnn3)C2)c(F)c2[nH]c(C(=O)N3CC[C@@H](C(N)=O)C3)cc12 [Example I-1544] | < 0.1 µM | –
15 | COc1cc(F)cnc1N1CCN(C(=O)c2cc3c(C4CCCCN4C)cc(C4=CCCN(C(=O)CCn5ccnn5)C4)c(F)c3[nH]2)CC1 (centres unmarked) [Example I-780] | – | < 0.1 µM
16 | COc1ccccc1-c1cc(C2=CCCN(C(=O)CCn3ccnn3)C2)c(F)c2[nH]c(C(=O)N(C)C3Cc4ccccc4C3)cc12 [Example I-978] | – | 0.1 to 1 µM
17 | CN(C(=O)c1cc2cc(C3=CCCN(C(=O)CCn4ccnn4)C3)ccc2o1)C1CC1 [Example I-1612] | 0.1 to 1 µM | –
18 | Cc1c(-c2cc3cc(C4=CCCN(C(=O)CCn5ccnn5)C4)ccc3o2)cnn1C [Example I-1288] | 10 to 100 µM | –
19 | COc1ccccc1-c1cc([C@H]2CCCN(C(=O)CCn3ccnn3)C2)c(F)c2[nH]c(C(=O)N(C)C)cc12 [Example I-1195] | – | > 100 µM
20 | COc1ccccc1-c1cc(C2=CCCN(C(=O)C3Cc4ccccc4CN3C=O)C2)cc2cc(C(=O)N(C)C)oc12 (centres unmarked) [Example I-803, 5-(1-(2-formyl-1,2,3,4-tetrahydroisoquinoline-3-carbonyl)-1,2,5,6-tetrahydropyridin-3-yl)-7-(2-methoxyphenyl)-N,N-dimethylbenzofuran-2-carboxamide] | – | 10 to 100 µM
21 | CN(C)C(=O)c1cc2ccc(C3=CCCN(C(=O)C4(O)CC4)C3)cc2[nH]1 [Example I-27] | – | 10 to 100 µM
22 | CNc1ccc(-c2cc(C3=CCCN(C(=O)CCn4ccnn4)C3)c(F)c3[nH]c(C(=O)N4CCN(c5ncccc5OC)CC4)cc23)c(OC)c1 [Example I-580] | – | < 0.1 µM
23 | CNc1ccc(-c2cc(C3=CCCN(C(=O)CCn4ccnn4)C3)cc3[nH]c(C(=O)N(C)C)cc23)cc1 [Example I-113] | – | < 0.1 µM
24 | CNc1ccc(-c2cc([C@H]3CCCN(C(C)=O)C3)c(F)c3[nH]c(C(=O)N(C)C)cc23)c(OC)c1 (single isomer, unassigned) [Example I-1649] | < 0.1 µM | –
25 | COc1cccc(N2CCN(C(=O)c3cc4c(-c5cc(F)c(F)cc5OC)cc(C5=CCCN(C(=O)CCn6ccnn6)C5)c(F)c4[nH]3)CC2)n1 [Example I-590] | – | < 0.1 µM
26 | CN(C)C(=O)c1cc2ccc(C3=CCCN(C(=O)CCc4ccc(C#N)cc4)C3)cc2[nH]1 [Example I-162] | – | 1 to 10 µM
27 | COc1cccnc1N1CCN(C(=O)c2cc3c(-c4cn(C)nc4C)cc(C4=CCCN(C(=O)CCn5ccnn5)C4)c(F)c3[nH]2)CC1 [Example I-574] | – | < 0.1 µM

Row | Compound | IC50 (30 minutes room temperature) | IC50 (30 minutes at room temperature)
28 | CN(C)C(=O)c1cc2ccc(C3=CCCN(S(=O)(=O)Cc4cccnn4)C3)cc2[nH]1 [Example I-16] | – | > 100 µM
29 | COc1cc(F)cnc1N1CCN(C(=O)c2cc3c(C4CCN(C)CC4)cc(C4=CCCN(C(=O)CCn5ccnn5)C4)c(F)c3[nH]2)CC1 [Example I-725] | – | < 0.1 µM
30 | CC(=O)N1CCC=C(c2cc(-c3cc(C(F)(F)F)nn3C)c3cc(C(=O)N(C)C)[nH]c3c2F)C1 [Example I-1493] | 0.1 to 1 µM | –
31 | CN(C)C(=O)c1cc2cc(C3=CCCN(C(=O)CCc4nncs4)C3)ccc2o1 [Example I-147] | – | 0.1 to 1 µM
32 | CN(C)C(=O)c1cc2cc(C3=CCCN(C(=O)CCn4ccnn4)C3)cc(N3CCC(Cc4ccccc4)CC3)c2o1 [Example I-1513] | 0.1 to 1 µM | –
33 | CNCC1CCCN(C(=O)c2cc3c(-c4ccccc4OC)cc(C4=CCCN(C(=O)CCn5ccnn5)C4)c(F)c3[nH]2)C1 (centres unmarked) [Example I-1584] | 0.1 to 1 µM | –
34 | CO[C@@H](C(=O)N1CCC=C(c2ccc3cc(C(=O)N(C)C)[nH]c3c2)C1)c1ccccc1 [Example I-50] | – | 1 to 10 µM
35 | COc1cc(F)cnc1N1CCN(C(=O)c2cc3c(C=C4CCOCC4)cc(C4=CCCN(C(=O)CCn5ccnn5)C4)c(F)c3[nH]2)CC1 [Example I-644] | – | < 0.1 µM
36 | CN(C)C(=O)c1cc2ccc(C3=CCCN(C(=O)CCN4CCOC4=O)C3)cc2[nH]1 [Example I-134] | – | 10 to 100 µM
37 | COc1ccccc1-c1cc(C2=CCCN(C(=O)CCn3ccnn3)C2)c(F)c2[nH]c(C(=O)N(C)CC#CCCO)cc12 [Example I-1558] | < 0.1 µM | –
38 | COc1cc(F)ccc1-c1cc(C2=CCCN(C(=O)CCn3ccnn3)C2)c(F)c2[nH]c(C(=O)N3CCN(c4ccc(F)c(OC)n4)CC3)cc12 [Example I-1107] | – | 0.1 to 1 µM
39 | CN(C)C(=O)c1cc2ccc(C3=CCCN(C(=O)C4CC(=O)N4)C3)cc2[nH]1 (centres unmarked) [Example I-30] | – | 10 to 100 µM
40 | CCC1=C(c2cc(C3=CCCN(C(=O)CCn4ccnn4)C3)c(F)c3[nH]c(C(=O)N4CCN(c5ncc(F)cc5OC)CC4)cc23)CCN(C)C1 [Example I-783, 1-[5-[4-(5-ethyl-1-methyl-3,6-dihydro-2H-pyridin-4-yl)-7-fluoro-2-[4-(5-fluoro-3-methoxy-2-pyridyl)piperazine-1-carbonyl]-1H-indol-6-yl]-3,6-dihydro-2H-pyridin-1-yl]-3-(triazol-1-yl)propan-1-one] | – | 0.1 to 1 µM and < 0.1 µM
41 | CC(=O)N1CCC=C(c2cc(-c3ccc(F)cc3O)c3cc(C(=O)N(C)C)[nH]c3c2F)C1 [Example I-891] | – | 0.1 to 1 µM
42 | COc1cccc(N2CCN(C(=O)c3cc4c(-c5cccnc5OC)cc(C5=CCCN(C(=O)CCn6ccnn6)C5)c(F)c4[nH]3)CC2)n1 [Example I-606] | – | < 0.1 µM
43 | CCC/C=C/c1cc(C2=CCCN(C(=O)CCn3ccnn3)C2)c(F)c2[nH]c(C(=O)N3CCN(c4ncc(F)cc4OC)CC3)cc12 [Example I-677] | – | < 0.1 µM
44 | Cc1ccc(-c2cc3cc(C4=CCCN(C(=O)CCn5ccnn5)C4)ccc3o2)cn1 [Example I-1289] | 10 to 100 µM | –
45 | CCC1CN(C(=O)c2cc3c(-c4ccccc4OC)cc(C4=CCCN(C(=O)CCn5ccnn5)C4)c(F)c3[nH]2)CC=C1c1ccccn1 (racemic) [Example I-1042] | – | 10 to 100 µM
46 | CC(=O)c1ccccc1-c1cc(C2=CCCN(C(C)=O)C2)c(F)c2[nH]c(C(=O)N(C)C)cc12 [Example I-1097] | – | > 100 µM
47 | CN(C)C(=O)c1cc2cc(C3=CCCN(C(=O)CCc4ccccn4)C3)ccc2o1 [Example I-268] | – | 1 to 10 µM
48 | COc1cc(F)cnc1N1CCN(C(=O)c2cc3c(C=CC(C)(C)O)cc(C4=CCCN(C(=O)CCn5ccnn5)C4)c(F)c3[nH]2)CC1 [Example I-1110] | – | < 0.1 µM
49 | COc1ccccc1-c1cc(C2=CCCN(C(=O)CCn3ccnn3)C2)c(F)c2[nH]c(C(=O)N3CCN(c4ccc(O)cc4)CC3)cc12 [Example I-867] | – | < 0.1 µM
50 | COc1ccccc1-c1cc(C2=CCCN(C(C)=O)C2)c(F)c2[nH]c(C(=O)N3CCN(c4ncccc4OC)CC3)cc12 [Example I-553] | – | 0.1 to 1 µM
51 | CN(C)C(=O)c1cc2cc(C3=CCCN(C(=O)Cc4nc5ccccc5s4)C3)ccc2o1 [Example I-221] | – | 10 to 100 µM
52 | CCC1CN(C)CC1c1cc(C2=CCCN(C(=O)CCn3ccnn3)C2)c(F)c2[nH]c(C(=O)N3CCN(c4ncc(F)cc4OC)CC3)cc12 (centres unmarked) [Example I-1208, 1-[5-[4-(4-ethyl-1-methyl-pyrrolidin-3-yl)-7-fluoro-2-[4-(5-fluoro-3-methoxy-2-pyridyl)piperazine-1-carbonyl]-1H-indol-6-yl]-3,6-dihydro-2H-pyridin-1-yl]-3-(triazol-1-yl)propan-1-one] | – | < 0.1 µM
53 | CN(C)C(=O)c1cc2cc(C3=CCCN(C(=O)CCn4ccnn4)C3)cc(CN3CCNCC3)c2o1 [Example I-1179] | – | < 0.1 µM
